Experimental data reported in ChEMBL document CHEMBL4888484, “Replenishing the malaria drug discovery pipeline: Screening and hit evaluation of the MMV Hit Generation Library 1 (HGL1) against asexual blood stage Plasmodium falciparum ,using a nano luciferase reporter read-out” (2022).
The whole screen tested about 150,000 compounds, of which about 540 (0.36%) showed an effect of 50% or more. Some of the results follow.

System: Plasmodium falciparum
Experiment: Primary screen in NF54 nanoGlo assay, in single point, at 2uM, 72h; a lower Z score goes with more inhibition
Format: functional, Erythrocyte
Settings: timepoint 72 hour

Row | SMILES | % Inhibition [%] | Z score
1 | COc1ccc(OC)c2c1cc(C(=O)N1CCN(Cc3ccccc3)CC1)n2C | -12 | 1.48
2 | CCC[C@H]1CN(C(=O)c2ccccc2CCc2cccc(OC)c2)C[C@@H]1N | -5 | 0.71
3 | CC(C)CCC(=O)Nc1ccc(N(C)C)cn1 | -5 | 0.57
4 | Nc1ccc(OC(F)(F)C(F)F)c(N)c1 | -3 | 0.41
5 | CC[C@H](C)N(Cc1ccc(Cl)cc1)C(=O)CCc1cc(O)no1 | -7 | 0.92
6 | CCOc1cc([C@H]2c3c(-c4ccccc4)nnc(O)c3Nc3nnnn32)ccc1O | -15 | 2.07
7 | Nc1nc(N2CCN(Cc3ccc(F)cc3)CC2)cc([C@H]2C[C@@H](N)C2)n1 | 16 | -2.35
8 | COc1nccc2c(NCc3cn(C(C)(C)C)nn3)cccc12 | 5 | -1
9 | O=S(=O)(c1cccnc1)N1CCN(Cc2ccc3cn[nH]c3c2)CC1 | -1 | 0.15
10 | CN(C)C[C@@H](c1ccccc1)N(C)C(=O)Nc1cccc(-c2nnn(C)n2)c1 | -1 | 0.18
11 | CC(C(=O)N1CCC(c2nnc[nH]2)C1)c1ccc(Cl)c(Cl)c1 (configuration not stated) | -10 | 1.76
12 | CC1CCCCC1N(C)C(=O)Cn1cnnc1Nc1cccnc1 (configuration not stated) | -11 | 1.02
13 | CC(=O)Nc1nc(C(=O)NC[C@H](C)C(=O)OC(C)C)cs1 | 8 | -0.96
14 | CCc1noc(CCNC(=O)[C@H](C)n2cccn2)n1 | 2 | -0.2
15 | Cc1nc(CC(=O)Nc2ccc(F)c(F)c2)sc1C(=O)NCc1ccccc1 | -12 | 1.55
16 | C=CCC[C@@H](CN(C)Cc1cccnc1)Oc1ccc(C#N)nc1 | -18 | 1.82
17 | O=C(CS(=O)(=O)Cc1cc(Cl)c2c(c1)OCCCO2)N1CCCCCCC1 | -18 | 1.6
18 | OC1CCC(Nc2cncc(-n3cccn3)n2)CC1 (configuration not stated) | 30 | 0.04
19 | Cc1ccc(-c2nc(-c3cnccn3)no2)s1 | -5 | 0.87
20 | O=C(Nc1ccccc1-n1ccnc1)c1cnccn1 | 36 | -4.8
21 | CC(C)Oc1ccc(CN2CCc3nc(N4CCCC4)ncc3C2)cc1 | -5 | 0.74
22 | Cc1cc(C(=O)NCc2ccnc(-c3cccnc3)c2)c(C)o1 | 2 | -0.27

Row | SMILES | % Inhibition [%] | Z score
23 | Cc1cnc(CN2CCC(C)[S+]([O-])CC2)nc1 (configuration not stated) | -9 | 1.01
24 | CCCc1cc(CN(C)C(=O)C[C@]2(c3cccc(C(F)(F)F)c3)CC(=O)N(CC)C2=O)n[nH]1 | 14 | -1.8
25 | COc1ccc(-c2oncc2-c2cc(OC)c3c(c2OC)OCO3)cc1 | 13 | -1.64
26 | Cc1ncn(-c2ccc(NC(=O)C3(C)COC3)cc2)c1C | -8 | 1.16
27 | Cc1cc(=O)c(C(=O)NCc2cccnc2)c(CC2CCCC2)n1CCCN1CCCC1=O | 9 | -1.26
28 | Cc1cc(Br)cc(Cl)c1NS(C)(=O)=O | -11 | 1.55
29 | CC1(C)CC2(CO1)CC(NC(=O)c1cc3c(cn1)OCCC3)C2 (configuration not stated) | -7 | 1.02
30 | N#Cc1ccc(OC(=O)c2cc(-c3ccccc3)on2)cc1 | 16 | -1.81
31 | Cc1cc([C@@H]2CCCN2S(C)(=O)=O)on1 | -6 | 0.77
32 | OCCc1cnc2c(-c3nc([C@H]4CCOC4)n[nH]3)cnn2c1 | -3 | 0.57
33 | Cc1ccc(/N=C(\N)C(Cl)(Cl)Cl)c(C)c1 | 37 | -4.76
34 | Cc1nc2c(C(=O)N3CC[C@@]4(C3)NC(=O)N(C)C4=O)cccc2o1 | 1 | -0.24
35 | C[C@H]1Cc2cccc3c(=O)c(C(=O)Nc4ccc(Oc5ccccc5)cc4)cn1c23 | 9 | -1.06
36 | COc1cc(NC(=O)CC[C@H]2CCCN(C(=O)c3ocnc3C)C2)cc(OC)c1 | -14 | 1.96
37 | Cc1nc(C)c(C)c(N2CCC(N3CCOCC3)CC2)n1 | -13 | 1.8
38 | COCCC(=O)NCCc1ncc(C)n1C1CCC1 | -5 | 0.76
39 | CC(C)OC[C@H](N)C(=O)Nc1cccnc1 | -4 | 0.41
40 | CC(C)(C)OC(=O)N1CCN[C@H](c2ccccc2)C1 | -8 | 1.53
41 | O[C@H]1CCN(Cc2nc3cc(F)ccc3o2)C12CCCC2 | 7 | -1.08
42 | Cc1ccc2c(C(=O)N3CCC(C)(C)C3)cc(-c3cncnc3)nc2c1C | -9 | 1.63
43 | Cc1nc(-c2ccccc2C(F)(F)F)c(N)c(N2CCOCC2)n1 | 3 | -0.38
44 | COCCC1(NC(=O)c2ccc(C#N)cc2)CCN(CC2CC2)CC1 | -1 | 0.13

Row | SMILES | % Inhibition [%] | Z score
45 | CC1(C)COC[C@@H]1NCc1ccncc1F | -6 | 0.84
46 | Cc1[nH][nH]c(=O)c1CC(=O)N1CCOC[C@@H]1CC(=O)Nc1cccc(F)c1 | -10 | 1.32
47 | C#CCN1CCC[C@H]1C(=O)Nc1nc(-c2cccs2)c(-c2cccs2)s1 | -8 | 1.16
48 | CN1CC(NC(=O)[C@@H]2COCC[C@@H]2c2ccccc2)CC1=O (some centres not stated) | 7 | -1.1
49 | Cc1cc(S(=O)(=O)N2CCN(c3nc[nH]n3)CC2)c(C)o1 | -10 | 1.55
50 | Cc1ccc(C(=O)N2CCn3c(nnc3C3CCN(S(=O)(=O)C(C)C)CC3)C2)cc1F | -7 | 1.17
51 | CCn1nnc2c(N3CC(C(=O)Nc4ccc5c(c4)OCCO5)C3)ncnc21 | -14 | 2.11
52 | Cc1nc(C)c(CNC(=O)NCc2cccc(-n3cncn3)c2)s1 | -10 | 1.14
53 | O=C(C1CCC1)N(CCN1CCOCC1)CC(=O)N1N=C(c2ccc(F)cc2)C[C@H]1c1ccccc1Cl | -12 | 1.18
54 | CCN1C[C@@H](c2ccccc2)CC2(CCN(c3cc(C)nc(NC)n3)CC2)C1 | 1 | -0.27
55 | NC(=O)Cc1nc(CCN2CCCCCC2=O)n(CC(F)(F)F)n1 | -11 | 1.11
56 | C[C@H](NC(=O)Nc1ccc2c(c1)OCO2)c1ccncc1 | -11 | 2.22
57 | CN1CCC[C@H]1C(=O)NCc1cc(COc2ccccc2)cs1 | -5 | 0.83
58 | Cc1c(Cl)c(CN2CCOCC23CC3)nn1C | -8 | 1.47
59 | Cc1noc(C)c1CN1CCC[C@H]1c1nc(-c2ccccc2)n[nH]1 | -13 | 2.04
60 | Cn1cc(-c2ncnc3[nH]cnc23)cn1 | 7 | -0.63
61 | Cc1noc(C)c1S(=O)(=O)NC[C@@H](c1cccs1)N(C)C | -8 | 1.15
62 | COc1ccc(S(=O)(=O)N[C@@H](CC(=O)NC2CCCC2)c2ccco2)cc1 | 15 | -1.75
63 | Cc1ccc(CN(C(=O)c2ccc(C(=O)O)cc2F)C(C)C)s1 | -4 | 0.59
64 | N#Cc1cccc(CN[C@@H]2CO[C@H](CNC(=O)c3ccncc3)[C@H]2O)c1 | -8 | 1.05
65 | CCCC(=O)NCc1ccc(CNC(=O)CCC)cc1 | 5 | -0.57
66 | CCc1csc(-c2ccc(S(=O)(=O)Nc3cc(F)cc(F)c3)s2)n1 | -10 | 1.97

Row | SMILES | % Inhibition [%] | Z score
67 | Cc1[nH]c(CN2CCC[C@H](c3ncc[nH]3)C2)cc1C#N | -1 | 0.23
68 | C[C@H]1Cc2cc(C(=O)NCc3cnc4c(c3)CCC4)ccc2O1 | -17 | 2.98
69 | O=C(NC1CCCC1)c1ccc(N[C@H]2CCCc3cn(C4CCCC4)nc32)nn1 | 2 | -0.22
70 | COc1ccc(NC(=O)C2CCN(c3cc(-c4cccc(F)c4)ncn3)CC2)cc1 | 4 | -0.46
71 | O=C(NCc1cccs1)NCC1(c2ccccc2)CC1 | -10 | 1.6
72 | Cc1ccc(N2CCCC2)c(C(=O)OCc2noc(C)n2)c1 | -15 | 1.98
73 | CC(C)c1cc(=O)[nH]c(-n2nc(C3CC3)cc2NC(=O)c2ccc(F)c(F)c2)n1 | 5 | -0.72
74 | Cc1ncsc1CCS(=O)(=O)N(C)C1CC(C)(C)C1 | -11 | 2.04
75 | Cc1ccc(C)c(Cn2c(N3CCN(CC=Cc4ccccc4)CC3)nc3c2c(=O)[nH]c(=O)n3C)c1 | 18 | -3.77
76 | CCOc1cc2c(cc1-c1nccn1CCc1c[nH]cn1)CCC2 | 5 | -0.72
77 | CCOC(=O)CN(C)c1ncc(CN[C@@H]2CCOC2)cn1 | 6 | -1.2
78 | CCn1nc(C)c(CNc2ncc(C)s2)c1C | -5 | 0.83
79 | COc1ccccc1CNC(=O)c1cc2n(n1)CCCO2 | -22 | 3.46
80 | CN1CCC(CCNS(=O)(=O)Cc2ccccc2)CC1 | -14 | 1.98
81 | COc1ccc(CC(C)(O)CNC(=O)C2CC=CCC2)cc1 (configuration not stated) | -10 | 1.42
82 | COCCC(=O)Nc1cc(Br)ccc1Br | -6 | 0.53
83 | Nc1c2c(-c3ccc4c(c3)OCO4)nc(N3CCC(N4CCCCC4)CC3)nc2nn1-c1ccc(Cl)cc1 | -5 | 0.45
84 | Cc1cnc(CN2CCc3cncnc3C2)cn1 | -4 | 0.71
85 | Oc1ccc2c(c1)CCN(c1nccn3nc(C(F)(F)F)cc13)CC2 | -3 | 0.59
86 | C[C@@H](C(=O)NCc1n[nH]c(C(C)(C)C)n1)c1ccccc1F | 0 | -0.04
